# Data as given in a collection of fitness landscapes (doi:10.1016/j.celrep.2020.107928).
# Over roughly 81,000 sequences, “one-hybrid fitness for binding parS DNA” has its median near -0.17; the highest 2% begin near 0.51. The list shows a part of the results.
# B1: Caulobacter ParB omega fusion; a variant is named by its letters at X, in order, B8GW30 (parent)
# chain: MESVVVGEPGMSEGRRGLGRGLSALLGEVDAAPAQAPGEQLGGSREAPIEILQRNPDQPRRTFREEDLEDLSNSIREKGVLQPILVRPSPDTAGEYQIVAGERAWRAAQRAGLKTVPIMVRELDDLAVLEIGIIENVQRADLNVLEEALSYKVLMEKFERTQENIAQTIGKSXSHVANXMRLLXLPDEVQSYLVSGELTAXHARAIAAAADPVALAKQIIEGGLSVRETEALARKAPNLSAGKSKGGRPPRVKDTDTQALESDLSSVLGLDVSIDHRGSTGTLTITYATLEQLDDLCNRLTRGI
# Variants of: B1
# Test: one-hybrid fitness for binding parS DNA (scaled: cognate 1, non-cognate 0); higher = stronger binding
# Details: with parS DNA site
# Outline: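 Bacterial one-hybrid selection in E. coli USO rpoZ- hisB- pyrF- with a HIS3 reporter carrying the site 19 bp from the promoter, screening Caulobacter ParB libraries with four specificity codons randomised (NNS). Cells grew 48 hours at 37°C on M9-minus-histidine plus 0.1 mM IPTG and 5 mM 3-AT. Plasmids before and after selection were Illumina-sequenced, three replicate libraries pooled, and variants under 10 reads dropped. Fitness is the log change in variant-to-wild-type read ratio, rescaled to cognate 1, non-cognate 0.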
row,Variant,one-hybrid fitness for binding parS DNA
1,SLKM,≤ 0.2
2,CDHG,≤ 0.2
3,PMSG,≤ 0.2
4,FIHY,≤ 0.2
5,PPRR,≤ 0.2
6,MIGV,≤ 0.2
7,VERT,≤ 0.2
8,VLKM,≤ 0.2
9,SAER,≤ 0.2
10,QMLY,≤ 0.2
11,TWRG,≤ 0.2
12,TGSS,≤ 0.2
13,LVQV,≤ 0.2
14,SMRN,≤ 0.2
15,CYLS,≤ 0.2
16,GPLP,≤ 0.2
17,VLPE,0.313
18,LRMV,≤ 0.2
19,CWNG,≤ 0.2
20,CHPY,≤ 0.2
21,PQEG,≤ 0.2
22,DALK,≤ 0.2
23,TSKL,≤ 0.2
24,SYTN,≤ 0.2
25,QTGF,≤ 0.2
26,MGAR,≤ 0.2

row,Variant,one-hybrid fitness for binding parS DNA
1,TRSV,≤ 0.2
2,RFFC,0.674
3,VKPS,≤ 0.2
4,SPVL,≤ 0.2
5,CYRP,≤ 0.2
6,KHLE,≤ 0.2
7,SVVT,≤ 0.2
8,QSHH,≤ 0.2
9,RMYT,0.923
10,QDMG,≤ 0.2
11,SHTT,≤ 0.2
12,YGCS,≤ 0.2
13,QLVE,≤ 0.2
14,NCRC,≤ 0.2
15,PWPV,≤ 0.2
16,MYTK,≤ 0.2
17,ILTY,≤ 0.2
18,LHQC,≤ 0.2
19,MTAG,≤ 0.2
20,TPDD,≤ 0.2
21,HDKF,≤ 0.2
22,TVLP,≤ 0.2
23,PALA,≤ 0.2
24,DRHV,≤ 0.2
25,LAYR,≤ 0.2
26,QRCK,≤ 0.2

row,Variant,one-hybrid fitness for binding parS DNA
1,AATY,≤ 0.2
2,PECE,≤ 0.2
3,IAHP,≤ 0.2
4,STCG,≤ 0.2
5,TCSR,≤ 0.2
6,DDAC,≤ 0.2
7,CLAS,≤ 0.2
8,CCTG,≤ 0.2
9,IHQF,≤ 0.2
10,KMMG,≤ 0.2
11,IHGS,≤ 0.2
12,FTKY,≤ 0.2
13,ENFT,≤ 0.2
14,TFAG,≤ 0.2
15,RKTV,≤ 0.2
16,RRMC,0.625
17,ETCG,≤ 0.2
18,LNTG,≤ 0.2
19,CEYL,≤ 0.2
20,PNDS,≤ 0.2
21,RWMT,0.556
22,QNRG,≤ 0.2
23,RLDK,≤ 0.2
24,IGMN,≤ 0.2
25,VHAV,≤ 0.2
26,RETM,≤ 0.2

row,Variant,one-hybrid fitness for binding parS DNA
1,VAMT,≤ 0.2
2,QAQR,≤ 0.2
3,RDAR,≤ 0.2
4,RYSH,≤ 0.2
5,QHQG,≤ 0.2
6,NPQS,≤ 0.2
7,QCSH,≤ 0.2
8,QCRH,≤ 0.2
9,IVFC,≤ 0.2
10,VQNQ,≤ 0.2
11,ATYW,≤ 0.2
12,DRFR,≤ 0.2
13,MPLG,≤ 0.2
14,AGVV,≤ 0.2
15,HAET,≤ 0.2
16,EDRG,≤ 0.2
17,MGEV,≤ 0.2
18,RRHA,0.693
19,LTIT,≤ 0.2
20,LFAG,≤ 0.2
21,WTCM,≤ 0.2
22,ESNF,≤ 0.2
23,LAHM,≤ 0.2
24,PINQ,≤ 0.2
25,TQYR,≤ 0.2
26,KKTV,≤ 0.2

row,Variant,one-hybrid fitness for binding parS DNA
1,ATEK,≤ 0.2
2,QRRM,≤ 0.2
3,VEFC,≤ 0.2
4,MIGT,≤ 0.2
5,TYKE,≤ 0.2
6,GPEA,≤ 0.2
7,ARTH,≤ 0.2
8,GSGI,≤ 0.2
9,LNGW,≤ 0.2
10,LTAA,≤ 0.2
11,QSLI,≤ 0.2
12,RKWK,≤ 0.2
13,MNTG,≤ 0.2
14,QNQI,≤ 0.2
15,QTEK,≤ 0.2
16,SNRC,≤ 0.2
17,IPYA,≤ 0.2
18,FSSI,≤ 0.2
19,SMNC,≤ 0.2
20,TQGS,≤ 0.2
21,QPIP,≤ 0.2
22,ALHI,≤ 0.2
23,NWRN,≤ 0.2
24,RTHI,≤ 0.2
25,IYPF,≤ 0.2
26,ERCS,≤ 0.2

row,Variant,one-hybrid fitness for binding parS DNA
1,REDS,≤ 0.2
2,DMKP,≤ 0.2
3,MSEL,≤ 0.2
4,AWVP,0.241
5,NEQG,≤ 0.2
6,TRQY,≤ 0.2
7,PVTF,≤ 0.2
8,QLMV,≤ 0.2
9,RDYF,≤ 0.2
10,RMYN,0.47
11,QCCV,≤ 0.2
12,LQTQ,≤ 0.2
13,VDTV,≤ 0.2
14,LDRW,≤ 0.2
15,CSPY,≤ 0.2
16,PVKW,≤ 0.2
17,ALEI,≤ 0.2
18,QFWS,≤ 0.2
19,ECMR,≤ 0.2
20,EPQD,0.251
21,WAKS,≤ 0.2
22,YYRG,≤ 0.2
23,SRGW,≤ 0.2
